Test results from the GPR68 mutational scans of Howard et al. (2025).
Scores whose standard error is large were omitted. The source holds two more conditions with little spread; they are left out. Read del as a deletion of the residues named and ins as an insertion between two positions. For some of these results: The data file names ogerin without a concentration.

B1: GPR68, Q15743 (parent)
chain: MGNITADNSSMSCTIDHTIHQTLAPVVYVTVLVVGFPANCLSLYFGYLQIKARNELGVYLCNLTVADLFYICSLPFWLQYVLQHDNWSHGDLSCQVCGILLYENIYISVGFLCCISVDRYLAVAHPFRFHQFRTLKAAVGVSVVIWAKELLTSIYFLMHEEVIEDENQHRVCFEHYPIQAWQRAINYYRFLVGFLFPICLLLASYQGILRAVRRSHGTQKSRKDQIQRLVLSTVVIFLACFLPYHVLLLVRSVWEASCDFAKGVFNAYHFSLLLTSFNCVADPVLYCFVSETTHRDLARLRGACLAFLTCSRTGRAREAYPLGAPEASGKSGAQGEEPELLTKLHPAFQTPNSPGSGGFPTGRLA

Tests used:
[1] = variants of: B1; assay: cAMP reporter score (Enrich2 score, wild type = 0); higher = more signal; HEK293T, FACS bins
[2] = variants of: B1; assay: surface expression score (Enrich2 score, wild type = 0); higher = more signal; HEK293T, FACS bins

## T18G
[1]; pH 5.5
  cAMP reporter score: -0.207
[1]; pH 6, modulator: ogerin
  cAMP reporter score: 0.303
[2]
  surface expression score: -0.536

## T18H
[1]; pH 5.5
  cAMP reporter score: 0.528
[1]; pH 6
  cAMP reporter score: -0.475
[1]; pH 6, modulator: ogerin
  cAMP reporter score: 0.413
[1]; pH 6.5, modulator: ogerin
  cAMP reporter score: -0.325
[2]
  surface expression score: -0.27

## T18I
[1]; pH 5.5
  cAMP reporter score: 0.337
[1]; pH 6
  cAMP reporter score: 0.549
[1]; pH 6, modulator: ogerin
  cAMP reporter score: 0.245
[1]; pH 6.5, modulator: ogerin
  cAMP reporter score: 0.594
[2]
  surface expression score: -0.215

## T18K
[1]; pH 5.5
  cAMP reporter score: -1.11
[1]; pH 6
  cAMP reporter score: 0.09
[1]; pH 6, modulator: ogerin
  cAMP reporter score: -0.347
[1]; pH 6.5, modulator: ogerin
  cAMP reporter score: 0.643
[2]
  surface expression score: -0.545

## T18L
[1]; pH 5.5
  cAMP reporter score: 1.06
[1]; pH 6
  cAMP reporter score: 0.351
[1]; pH 6, modulator: ogerin
  cAMP reporter score: 0.843
[1]; pH 6.5, modulator: ogerin
  cAMP reporter score: 1.45
[2]
  surface expression score: 0.276

## T18M
[1]; pH 5.5
  cAMP reporter score: 0.038
[1]; pH 6
  cAMP reporter score: 0.278
[1]; pH 6, modulator: ogerin
  cAMP reporter score: 0.449
[1]; pH 6.5, modulator: ogerin
  cAMP reporter score: 0.904
[2]
  surface expression score: -0.216

## T18N
[1]; pH 5.5
  cAMP reporter score: 0.485
[1]; pH 6
  cAMP reporter score: -0.345
[1]; pH 6, modulator: ogerin
  cAMP reporter score: 0.13
[1]; pH 6.5, modulator: ogerin
  cAMP reporter score: 0.225
[2]
  surface expression score: -0.337

## T18P
[1]; pH 5.5
  cAMP reporter score: -0.288
[1]; pH 6
  cAMP reporter score: -0.722
[1]; pH 6, modulator: ogerin
  cAMP reporter score: -0.182
[1]; pH 6.5, modulator: ogerin
  cAMP reporter score: -0.667
[2]
  surface expression score: -1.05

## T18Q
[1]; pH 5.5
  cAMP reporter score: -0.037
[1]; pH 6
  cAMP reporter score: 0.356
[1]; pH 6, modulator: ogerin
  cAMP reporter score: 0.874
[1]; pH 6.5, modulator: ogerin
  cAMP reporter score: -0.012
[2]
  surface expression score: -0.648

## T18R
[1]; pH 5.5
  cAMP reporter score: 0.107
[1]; pH 6
  cAMP reporter score: 0.654
[1]; pH 6, modulator: ogerin
  cAMP reporter score: 0.371
[1]; pH 6.5, modulator: ogerin
  cAMP reporter score: 0.546
[2]
  surface expression score: 0.578

## T18S
[1]; pH 5.5
  cAMP reporter score: -0.313
[1]; pH 6
  cAMP reporter score: -0.814
[1]; pH 6, modulator: ogerin
  cAMP reporter score: -0.346
[1]; pH 6.5, modulator: ogerin
  cAMP reporter score: 0.37
[2]
  surface expression score: -0.113

## T18V
[1]; pH 5.5
  cAMP reporter score: 0.849
[1]; pH 6
  cAMP reporter score: 1.18
[1]; pH 6, modulator: ogerin
  cAMP reporter score: 1.11
[1]; pH 6.5, modulator: ogerin
  cAMP reporter score: 1.65
[2]
  surface expression score: 0.481

## T18W
[1]; pH 5.5
  cAMP reporter score: 0.782
[1]; pH 6
  cAMP reporter score: 2.22
[1]; pH 6, modulator: ogerin
  cAMP reporter score: 1.6
[1]; pH 6.5, modulator: ogerin
  cAMP reporter score: 2.67
[2]
  surface expression score: 1.67

## T18Y
[1]; pH 5.5
  cAMP reporter score: -0.017
[1]; pH 6
  cAMP reporter score: 0.975
[1]; pH 6, modulator: ogerin
  cAMP reporter score: -0.186
[1]; pH 6.5, modulator: ogerin
  cAMP reporter score: 0.433
[2]
  surface expression score: 0.269

## T18_H20del
[1]; pH 5.5
  cAMP reporter score: -0.485

## I19A
[1]; pH 5.5
  cAMP reporter score: -1.44
[1]; pH 6, modulator: ogerin
  cAMP reporter score: -0.451
[1]; pH 6.5, modulator: ogerin
  cAMP reporter score: -0.79
[2]
  surface expression score: -1.32

## I19C
[1]; pH 5.5
  cAMP reporter score: -1.15
[1]; pH 6
  cAMP reporter score: -1.05
[1]; pH 6, modulator: ogerin
  cAMP reporter score: -0.404
[1]; pH 6.5, modulator: ogerin
  cAMP reporter score: -1.51
[2]
  surface expression score: -1.33

## I19D
[1]; pH 5.5
  cAMP reporter score: -2.09
[1]; pH 6, modulator: ogerin
  cAMP reporter score: -1.99
[1]; pH 6.5, modulator: ogerin
  cAMP reporter score: -0.815
[2]
  surface expression score: -1.79

## I19E
[1]; pH 5.5
  cAMP reporter score: -1.28
[1]; pH 6
  cAMP reporter score: -0.358
[1]; pH 6, modulator: ogerin
  cAMP reporter score: -2.43
[1]; pH 6.5, modulator: ogerin
  cAMP reporter score: -0.022
[2]
  surface expression score: -1.35

## I19F
[1]; pH 5.5
  cAMP reporter score: -1.11
[1]; pH 6
  cAMP reporter score: -0.368
[1]; pH 6, modulator: ogerin
  cAMP reporter score: -1.11
[1]; pH 6.5, modulator: ogerin
  cAMP reporter score: -0.706
[2]
  surface expression score: 0.683

## I19G
[1]; pH 5.5
  cAMP reporter score: -0.902
[1]; pH 6
  cAMP reporter score: -1.15
[1]; pH 6, modulator: ogerin
  cAMP reporter score: -1.54
[1]; pH 6.5, modulator: ogerin
  cAMP reporter score: -1.29
[2]
  surface expression score: -0.503

## I19H
[1]; pH 5.5
  cAMP reporter score: -0.774
[1]; pH 6
  cAMP reporter score: -0.234
[1]; pH 6, modulator: ogerin
  cAMP reporter score: -0.524
[1]; pH 6.5, modulator: ogerin
  cAMP reporter score: -0.803
[2]
  surface expression score: -2.06

## I19K
[1]; pH 5.5
  cAMP reporter score: -0.88
[1]; pH 6
  cAMP reporter score: -1.02
[1]; pH 6, modulator: ogerin
  cAMP reporter score: -1.09
[1]; pH 6.5, modulator: ogerin
  cAMP reporter score: -1.19
[2]
  surface expression score: -1.27

## I19L
[1]; pH 5.5
  cAMP reporter score: -0.044
[1]; pH 6
  cAMP reporter score: -0.388
[1]; pH 6, modulator: ogerin
  cAMP reporter score: -0.894
[1]; pH 6.5, modulator: ogerin
  cAMP reporter score: -0.92
[2]
  surface expression score: 0.61

## I19M
[1]; pH 5.5
  cAMP reporter score: 0.092
[1]; pH 6
  cAMP reporter score: 0.221
[1]; pH 6, modulator: ogerin
  cAMP reporter score: 0.286
[1]; pH 6.5, modulator: ogerin
  cAMP reporter score: -0.256
[2]
  surface expression score: -1.08

## I19N
[1]; pH 5.5
  cAMP reporter score: -1.38
[1]; pH 6
  cAMP reporter score: -1.8
[1]; pH 6, modulator: ogerin
  cAMP reporter score: -1.56
[1]; pH 6.5, modulator: ogerin
  cAMP reporter score: -0.806
[2]
  surface expression score: -1.52

## I19P
[1]; pH 5.5
  cAMP reporter score: -1.01
[1]; pH 6
  cAMP reporter score: -1.16
[1]; pH 6, modulator: ogerin
  cAMP reporter score: -1.29
[1]; pH 6.5, modulator: ogerin
  cAMP reporter score: -1.26
[2]
  surface expression score: -0.873

## I19Q
[1]; pH 5.5
  cAMP reporter score: -1.25
[1]; pH 6
  cAMP reporter score: -0.201
[1]; pH 6, modulator: ogerin
  cAMP reporter score: -1.84
[1]; pH 6.5, modulator: ogerin
  cAMP reporter score: -1.11
[2]
  surface expression score: -1.1

## I19R
[1]; pH 5.5
  cAMP reporter score: -1.52
[1]; pH 6
  cAMP reporter score: -1.04
[1]; pH 6, modulator: ogerin
  cAMP reporter score: -1.73
[1]; pH 6.5, modulator: ogerin
  cAMP reporter score: -0.629
[2]
  surface expression score: -1.31

## I19S
[1]; pH 5.5
  cAMP reporter score: -1.29
[1]; pH 6
  cAMP reporter score: -0.487
[1]; pH 6, modulator: ogerin
  cAMP reporter score: -1.2
[1]; pH 6.5, modulator: ogerin
  cAMP reporter score: -0.67
[2]
  surface expression score: -1.31

## I19T
[1]; pH 5.5
  cAMP reporter score: -0.66
[1]; pH 6, modulator: ogerin
  cAMP reporter score: -0.448
[1]; pH 6.5, modulator: ogerin
  cAMP reporter score: -0.275
[2]
  surface expression score: -1.1

## I19V
[1]; pH 5.5
  cAMP reporter score: -0.736
[1]; pH 6
  cAMP reporter score: -0.743
[1]; pH 6, modulator: ogerin
  cAMP reporter score: -0.695
[1]; pH 6.5, modulator: ogerin
  cAMP reporter score: -0.923
[2]
  surface expression score: -0.411
